Measurements: the antibiotic and cytotoxicity screens of Wong et al. (2023)
Some of the results follow.

How the values were obtained:
[1] = system: HSkMC (human skeletal muscle cells); experiment: cytotoxicity call (relative viability < 0.9); conditions: 10 µM
[2] = system: HepG2; experiment: cytotoxicity call (relative viability < 0.9); conditions: 10 µM
[3] = system: S. aureus RN4220; experiment: growth inhibition call (relative growth <= 0.2); conditions: 50 µM

Row | SMILES | cytotoxicity call [1] | cytotoxicity call [2] | growth inhibition call [3]
1 | C[C@@H]1CCCCO[C@@H](CN(C)C(=O)Cc2ccccc2)[C@H](C)CN([C@@H](C)CO)C(=O)c2cc(NS(=O)(=O)c3ccc(Cl)cc3)ccc2O1 | inactive | inactive | inactive
2 | CO[C@H]1CN(C)C(=O)c2cc(NS(=O)(=O)CC(F)(F)F)ccc2OC[C@@H](C)N(C(=O)NC(C)C)C[C@@H]1C | inactive | inactive | inactive
3 | Cc1ccc(S(=O)(=O)Nc2ccc3c(c2)C(=O)N([C@@H](C)CO)C[C@@H](C)[C@H](CN(C)C(=O)c2ccccc2)OCCCC[C@@H](C)O3)cc1 | inactive | inactive | inactive
4 | C[C@H]1CN([C@@H](C)CO)C(=O)c2cccc(NC(=O)Nc3ccc(F)cc3)c2O[C@H]1CN(C)S(=O)(=O)c1cn(C)cn1 | inactive | inactive | inactive
5 | CC(C)NC(=O)Nc1ccc2c(c1)C(=O)N([C@@H](C)CO)C[C@@H](C)[C@H](CN(C)Cc1ccc(Cl)c(Cl)c1)OCCCC[C@@H](C)O2 | inactive | inactive | inactive
6 | CC(C)CNC(=O)[C@@]1(C)c2ccccc2C(=O)N(Cc2cc(C(F)(F)F)cc(C(F)(F)F)c2)[C@H]1c1ccc(CO)cc1 | inactive | inactive | inactive
7 | COc1ccc(S(=O)(=O)N(C)C[C@@H]2OCCCC[C@@H](C)Oc3ccc(NC(=O)Nc4cccc5ccccc45)cc3C(=O)N([C@H](C)CO)C[C@H]2C)cc1 | inactive | inactive | inactive
8 | CCS(=O)(=O)N1CC[C@]2(CC1)CN(Cc1ccccc1OC)[C@H](CO)c1c2c2ccc(cc2n1C)OC | inactive | inactive | inactive
9 | COc1cc(OC)c2c(=O)c(O)c(-c3ccc(OC)c(OC)c3)oc2c1 | inactive | inactive | inactive
10 | C[C@H](O)C#Cc1cnc2c(c1)C(=O)N([C@@H](C)CO)C[C@@H](C)[C@@H](CN(C)Cc1cncnc1)O2 | inactive | inactive | inactive
11 | C[C@H](CO)N1C[C@H](C)[C@H](CN(C)C(=O)Nc2ccc(C(F)(F)F)cc2)Oc2c(NC(=O)Nc3ccc(F)cc3)cccc2C1=O | inactive | inactive | inactive
12 | C[C@H]1CCCCO[C@@H](CN(C)C(=O)Nc2cccc3ccccc23)[C@@H](C)CN([C@@H](C)CO)C(=O)c2cc(NS(C)(=O)=O)ccc2O1 | inactive | inactive | inactive
13 | C[C@H]1CCCCO[C@@H](CN(C)Cc2ccc(C(F)(F)F)cc2)[C@@H](C)CN([C@@H](C)CO)C(=O)c2cc(NC(=O)c3ccncc3)ccc2O1 | inactive | inactive | inactive
14 | C[C@@H]1CN([C@@H](C)CO)C(=O)c2cccc(NC(=O)C3CCOCC3)c2O[C@@H]1CN(C)S(=O)(=O)c1ccc(F)cc1 | inactive | inactive | inactive
15 | C[C@@H]1CN([C@H](C)CO)C(=O)Cc2cc(NC(=O)Nc3ccc(C(F)(F)F)cc3)ccc2O[C@@H]1CN(C)Cc1ccc2c(c1)OCO2 | active | active | inactive
16 | COc1ccc(NC(=O)N(C)C[C@@H]2Oc3c(NC(=O)Nc4ccc(C(F)(F)F)cc4)cccc3C(=O)N([C@H](C)CO)C[C@H]2C)cc1 | inactive | inactive | inactive
17 | COC(=O)C1CC2=CC(=O)CCC2(C)C23OC2CC2(C)C(CCC24CCC(=O)O4)C13 (configuration not stated) | inactive | inactive | inactive
18 | CN(C)C(=O)C[C@@H]1CC[C@@H]2[C@H](COc3ccc(NS(=O)(=O)c4cccc(F)c4)cc3C(=O)N2C)O1 | inactive | inactive | inactive
19 | C[C@@H]1CN([C@H](C)CO)S(=O)(=O)c2ccc(-c3ccccc3F)cc2O[C@@H]1CN(C)Cc1cncnc1 | inactive | inactive | inactive
20 | O=C(N/N=C/[C@H](O)[C@@H](O)[C@H](O)[C@H](O)CO[C@H]1O[C@H](CO)[C@H](O)[C@H](O)[C@H]1O)c1ccccn1 | inactive | inactive | inactive
21 | CO[C@@H]1CN(C)C(=O)c2cc(NC(=O)c3ccccc3)ccc2OC[C@H](C)N(C(=O)CN(C)C)C[C@H]1C | inactive | inactive | inactive
22 | CCCN1C[C@H](C)[C@H](OC)CN(C)C(=O)c2cc(NS(=O)(=O)c3cn(C)cn3)ccc2OC[C@H]1C | inactive | inactive | inactive
23 | CN(C)CCn1cnc2ccccc2c1=O | inactive | inactive | inactive
24 | C[C@@H]1CN([C@H](C)CO)C(=O)Cc2cc(NC(=O)Nc3ccc(C(F)(F)F)cc3)ccc2O[C@H]1CN(C)S(C)(=O)=O | inactive | inactive | inactive
